According to paper PMC11995724, “Antibiotic target discovery by integrated phenotypic and activity-based profiling of electrophilic fragments” (Cell chemical biology, 2025):
About 110 (3.4%) of roughly 3,200 compounds showed an effect of 50% or more. This is one part of the list.

test system: T1, V. cholerae SAD30; set-up: species or system S. aureus MSSA476 (TSB) or V. cholerae SAD30 (LB); 384-well bacterial growth screen at 25 uM, OD600 relative to DMSO control; conditions: relative growth, OD600, LB; 25 µM; inhibitor
T1 construct: SAD30

Structure (SMILES)	% of control remaining [%]
CC(Cl)C(=O)N1CCC(C(=O)c2cccs2)CC1 (centres unmarked) [7-L13, 2-chloro-1-[4-(thiophene-2-carbonyl)piperidin-1-yl]propan-1-one]	77.9779
C=CC(=O)NC(C)(C)c1ccc(S(N)(=O)=O)cc1F [2-P17, N-[2-(2-fluoro-4-sulfamoylphenyl)propan-2-yl]prop-2-enamide]	94.3646
O=C(CCl)NC(c1ccccc1)c1ccccc1 [6-M12, 2-chloro-N-(diphenylmethyl)acetamide]	93.4307
C=CC(=O)N1Cc2c(C(=O)O)cnn2CC1C (centres unmarked) [3-N18, 6-methyl-5-(prop-2-enoyl)-4H,5H,6H,7H-pyrazolo[1,5-a]pyrazine-3-carboxylic acid]	99.5001
CC(Cl)C(=O)N1CCN(C(=O)c2ccc3ccccc3c2)CC1 (centres unmarked) [7-E07, 2-chloro-1-[4-(naphthalene-2-carbonyl)piperazin-1-yl]propan-1-one]	76.3919
C=CC(=O)Nc1ccc(N2CCN(CC)CC2)cc1 [1-D12, N-[4-(4-ethylpiperazin-1-yl)phenyl]prop-2-enamide]	110.402
C=CC(=O)NCC1(C)CCS(=O)(=O)CC1 [1-G16, N-[(4-methyl-1,1-dioxo-1lambda6-thian-4-yl)methyl]prop-2-enamide]	91.6293
O=C(CCl)Nc1nc(-c2cc(F)ccc2F)cs1 [4-L22, 2-chloro-N-[4-(2,5-difluorophenyl)-1,3-thiazol-2-yl]acetamide]	111.624
Cc1cc(C(=O)CCl)co1 [10-A13, 2-chloro-1-(5-methylfuran-3-yl)ethan-1-one]	114.397
COc1ccc(C=C(C#N)C(=O)Nc2nccs2)cc1O [8-G19, 2-cyano-3-(3-hydroxy-4-methoxyphenyl)-N-(1,3-thiazol-2-yl)prop-2-enamide]	74.4392
C=CC(=O)NCC1CCCC1N1CCCS1(=O)=O (centres unmarked) [3-L13, N-{[2-(1,1-dioxo-1lambda6,2-thiazolidin-2-yl)cyclopentyl]methyl}prop-2-enamide]	89.796
CCOc1cc2c(cc1C=C(C#N)C(N)=O)OC(C)C2 (centres unmarked) [9-D04, 2-cyano-3-(5-ethoxy-2-methyl-2,3-dihydro-1-benzofuran-6-yl)prop-2-enamide]	94.9694
CC(Cl)C(=O)N1CCOCC1c1cccn1C (centres unmarked) [7-A09, 2-chloro-1-[3-(1-methyl-1H-pyrrol-2-yl)morpholin-4-yl]propan-1-one]	91.9874
N#CC(=Cc1ccc(O)cc1)C(=O)NCc1ccc(Cl)cc1 [8-B16, N-[(4-chlorophenyl)methyl]-2-cyano-3-(4-hydroxyphenyl)prop-2-enamide]	74.5751
CCc1ccccc1NC(=O)CN(C)C(=O)CCl [6-L06, 2-chloro-N-{[(2-ethylphenyl)carbamoyl]methyl}-N-methylacetamide]	89.1838
CC(NC(=O)CCl)C(=O)N1c2ccccc2CC1C (centres unmarked) [7-N16, 2-chloro-N-[1-(2-methyl-2,3-dihydro-1H-indol-1-yl)-1-oxopropan-2-yl]acetamide]	84.454
CC(Cl)C(=O)N1CCN(Cc2ccc(C(F)(F)F)cc2)C(=O)C1 (centres unmarked) [6-N19, 4-(2-chloropropanoyl)-1-{[4-(trifluoromethyl)phenyl]methyl}piperazin-2-one]	89.6388
N#CC(=Cc1ccncc1)C(=O)Nc1ccccc1Cl [8-N17, N-(2-chlorophenyl)-2-cyano-3-(pyridin-4-yl)prop-2-enamide]	76.7505
C=CC(=O)N1CC(n2nc(C)cc2C)C1 [3-B04, 1-[3-(3,5-dimethyl-1H-pyrazol-1-yl)azetidin-1-yl]prop-2-en-1-one]	113.968
COc1ccc(C2=NN(C(=O)CCl)C(c3ccco3)C2)cc1 (centres unmarked) [4-N19, 2-chloro-1-[5-(furan-2-yl)-3-(4-methoxyphenyl)-4,5-dihydro-1H-pyrazol-1-yl]ethan-1-one]	106.103
C=CC(=O)NCC12CC3CC(CC(C3)C1)C2 [1-F17, N-[(adamantan-1-yl)methyl]prop-2-enamide]	83.4081
COc1cc(S(=O)(=O)N2CCOCC2)ccc1NC(=O)CCl [6-L12, 2-chloro-N-[2-methoxy-4-(morpholine-4-sulfonyl)phenyl]acetamide]	88.8805
Cc1csc(C2(NC(=O)CCl)CCOCC2)n1 [7-J03, 2-chloro-N-[4-(4-methyl-1,3-thiazol-2-yl)oxan-4-yl]acetamide]	96.4811
C/C(O)=C(\C#N)C(=O)Nc1ccc(-c2ccccc2Cl)cc1 [9-P22, (2Z)-N-{2'-chloro-[1,1'-biphenyl]-4-yl}-2-cyano-3-hydroxybut-2-enamide]	88.8511
CC(Cl)C(=O)N1CCc2sccc2C1c1cccs1 (centres unmarked) [7-K07, 2-chloro-1-[4-(thiophen-2-yl)-4H,5H,6H,7H-thieno[3,2-c]pyridin-5-yl]propan-1-one]	54.0558
CCCN(Cc1ccc(C)cc1)C(=O)CCl [5-J09, 2-chloro-N-[(4-methylphenyl)methyl]-N-propylacetamide]	94.9879
COc1cccc2c1CCC2(CO)NC(=O)CCl (centres unmarked) [5-C20, 2-chloro-N-[1-(hydroxymethyl)-4-methoxy-2,3-dihydro-1H-inden-1-yl]acetamide]	102.553
CC(Cl)C(=O)N(C)C1CCCCC1 (centres unmarked) [5-J04, 2-chloro-N-cyclohexyl-N-methylpropanamide]	102.89
O=C(CCl)N(Cc1ccccc1)Cc1cc2n(n1)CCCC2 [5-L03, N-benzyl-2-chloro-N-({4H,5H,6H,7H-pyrazolo[1,5-a]pyridin-2-yl}methyl)acetamide]	109.278
